Whole data set: some 18,000 sequences, median “TetR repression strength (sort-seq, GFP reporter)” near 0.23, cut for the highest 2% near 0.68. Some of the results follow.
What follows are sequences tested against TetR (class B, Tn10) (UniProt P04483) (assay: TetR repression strength (sort-seq, GFP reporter) (relative to tetO2 = 1); higher = stronger repression). Settings: E. coli.
Summary of the method: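 In LB with 50 µg/mL chloramphenicol, E. coli SIG10-MAX holding a low-copy library with eight randomized operator positions between a constitutive promoter and sfGFP, plus constitutive TetR, grew for 5 h at 37 °C. FACS then sorted 10^6 cells into 13 fluorescence bins for Illumina sequencing of each bin. Repression strength equals the top bin index plus one less the read-weighted mean bin, normalized to the unaltered operator. Values from three independent transformations were averaged when reads were ≥30 in every replicate and the CV was ≤0.5.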

UniProt P04483, sequence (P04483 whole entry): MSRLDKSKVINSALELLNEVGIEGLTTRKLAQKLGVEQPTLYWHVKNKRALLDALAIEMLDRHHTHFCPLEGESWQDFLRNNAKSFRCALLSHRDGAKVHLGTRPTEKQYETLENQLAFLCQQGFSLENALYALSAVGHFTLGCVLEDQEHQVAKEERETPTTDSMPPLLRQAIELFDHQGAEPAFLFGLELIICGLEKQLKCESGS

| Sequence | TetR repression strength |
| --- | --- |
| TCCCGACCAGTGACTGAGA | 0.362 |
| TCCCCCAGAGTCGACGAGA | 0.84 |
| TCCCATAGAGTCCATGAGA | 0.215 |
| TCCCGAGTAGTGGCTGAGA | 0.311 |
| TCCCATTTAGTCTCAGAGA | 0.344 |
| TCCCGTGTAGTGGGTGAGA | 0.117 |
| TCCCTTCAAGTACTGGAGA | 0.0375 |
| TCCCAGTCAGTGAAAGAGA | 0.62 |
| TCCCACCGAGTTAGTGAGA | 0.27 |
| TCCCAGGGAGTCACAGAGA | 0.214 |
| TCCCGTCAAGTCGGGGAGA | 0.334 |
| TCCCGGTAAGTAGGCGAGA | 1.05 |
| TCCCATAAAGTGAAAGAGA | 0.413 |
| TCCCTGGGAGTATGAGAGA | 0.46 |
| TCCCTGCTAGTGGGGGAGA | 0.0729 |
| TCCCGACAAGTAGTAGAGA | 0.424 |
| TCCCCCTTAGTCGAAGAGA | 0.277 |
| TCCCTCCGAGTGGGCGAGA | 0.117 |
| TCCCGATCAGTAATGGAGA | 0.354 |
| TCCCGGGGAGTGCCGGAGA | 0.174 |
| TCCCGGGTAGTGTACGAGA | 0.254 |
| TCCCGATCAGTTACTGAGA | 0.552 |
| TCCCAGCCAGTTCCAGAGA | 0.244 |
| TCCCAGGTAGTTGTGGAGA | 0.505 |
| TCCCTTGTAGTTTTGGAGA | 0.199 |
| TCCCGGCCAGTCATAGAGA | 0.522 |

| Sequence | TetR repression strength |
| --- | --- |
| TCCCGTACAGTGACCGAGA | 0.312 |
| TCCCACCTAGTCCGGGAGA | 0.368 |
| TCCCGTCGAGTGGATGAGA | 0.133 |
| TCCCCGTCAGTATTGGAGA | 0.51 |
| TCCCTAGCAGTACGAGAGA | 0.139 |
| TCCCGGACAGTCCCGGAGA | 0.27 |
| TCCCCTGGAGTCTGTGAGA | 0.0718 |
| TCCCACAGAGTGGCAGAGA | 0.348 |
| TCCCGGCGAGTTGAAGAGA | 0.204 |
| TCCCAAGGAGTTGCTGAGA | 0.204 |
| TCCCGCACAGTCGCCGAGA | 0.287 |
| TCCCGATCAGTGAGCGAGA | 0.544 |
| TCCCTTTGAGTATTAGAGA | 0.39 |
| TCCCTTGCAGTGCGCGAGA | 0.173 |
| TCCCCCGGAGTATGGGAGA | 0.145 |
| TCCCCTTAAGTAACTGAGA | 0.299 |
| TCCCGGGTAGTATGTGAGA | 0.237 |
| TCCCAAAAAGTCGTAGAGA | 0.157 |
| TCCCCACAAGTCACCGAGA | 0.336 |
| TCCCGACCAGTGTCTGAGA | 0.256 |
| TCCCTTTGAGTAAATGAGA | 0.33 |
| TCCCACGTAGTTATGGAGA | 0.525 |
| TCCCCGAAAGTGCGTGAGA | 0.183 |
| TCCCGACTAGTCGGGGAGA | 0.275 |
| TCCCAGTGAGTCAAAGAGA | 0.187 |
| TCCCGCTAAGTTGGTGAGA | 0.176 |

| Sequence | TetR repression strength |
| --- | --- |
| TCCCGTATAGTAAAGGAGA | 0.0444 |
| TCCCAGGCAGTGAAGGAGA | 0.0977 |
| TCCCAACGAGTACAGGAGA | 0.259 |
| TCCCGTTAAGTGCGAGAGA | 0.109 |
| TCCCAGAAAGTAACAGAGA | 0.229 |
| TCCCGTTCAGTGCTGGAGA | 0.399 |
| TCCCCTTAAGTGTATGAGA | 0.348 |
| TCCCATGAAGTAGAGGAGA | 0.188 |
| TCCCATTTAGTCGCTGAGA | 0.208 |
| TCCCCAAAAGTCCTTGAGA | 0.326 |
| TCCCAGGTAGTACACGAGA | 0.207 |
| TCCCTTCAAGTGGGCGAGA | 0.255 |
| TCCCGTCAAGTGGGAGAGA | 0.0979 |
| TCCCGCGGAGTGGCGGAGA | 0.119 |
| TCCCAAGCAGTGATAGAGA | 0.505 |
| TCCCGGAAAGTCTCCGAGA | 0.234 |
| TCCCTCTGAGTGGGCGAGA | 0.204 |
| TCCCGCGTAGTTACCGAGA | 0.161 |
| TCCCTGGGAGTGTTAGAGA | 0.0903 |
| TCCCCTACAGTCGAGGAGA | 0.107 |
| TCCCACCTAGTATGCGAGA | 0.418 |
| TCCCGTCGAGTCGTGGAGA | 0.511 |
| TCCCCGTGAGTAACAGAGA | 0.289 |
| TCCCCTTCAGTTGGTGAGA | 0.183 |
| TCCCGGCCAGTGGGCGAGA | 0.251 |
| TCCCAGGTAGTGTAGGAGA | 0.125 |

| Sequence | TetR repression strength |
| --- | --- |
| TCCCTTTAAGTGCTGGAGA | 0.3 |
| TCCCGTGAAGTCACCGAGA | 0.165 |
| TCCCTCGGAGTTGAGGAGA | 0.0418 |
| TCCCGGGCAGTCGGCGAGA | 0.457 |
| TCCCCGCCAGTGGGGGAGA | 0.171 |
| TCCCGCGCAGTAATAGAGA | 0.426 |
| TCCCTCAGAGTACGGGAGA | 0.00576 |
| TCCCCCTGAGTCGGGGAGA | 0.297 |
| TCCCCGTGAGTAAACGAGA | 0.248 |
| TCCCGTAGAGTGTGAGAGA | 0.258 |
| TCCCACGCAGTGACAGAGA | 0.323 |
| TCCCCTGCAGTGGCTGAGA | 0.205 |
| TCCCGTTGAGTTGTCGAGA | 0.0242 |
| TCCCCCATAGTTCAAGAGA | 0.501 |
| TCCCGGGGAGTGCGCGAGA | 0.123 |
| TCCCGATAAGTACTTGAGA | 0.405 |
| TCCCACTGAGTGGCGGAGA | 0.111 |
| TCCCTAACAGTAACGGAGA | 0.179 |
| TCCCAGTCAGTACTGGAGA | 0.126 |
| TCCCTTGTAGTGTGCGAGA | 0.211 |
| TCCCAGTTAGTACAAGAGA | 0.512 |
| TCCCTCCAAGTCGAGGAGA | 0.104 |
| TCCCGTGGAGTGTTCGAGA | 0.914 |
| TCCCCGTGAGTGACGGAGA | 0.211 |

Source: a collection of fitness landscapes (doi:10.1038/s41467-024-54723-y)
